{
  "source": "PubChem BioAssay AID488969",
  "about": "(Vanderbilt High Throughput Screening Facility, 2010)",
  "note": "Whole data set: some 110,000 compounds, median “z-score” near -0.1, cut for the highest 2% near 2. The list shows a part of the results. Active and inactive are the calls of the source.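 How the source made its calls: active means z-score in the third read window above 3 or below -3; inactive means the rest.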",
  "data": [
    {"target": "Metabotropic glutamate receptor 8 (Rattus norvegicus) (UniProt P70579)", "sequence (P70579 whole entry, looked up)": "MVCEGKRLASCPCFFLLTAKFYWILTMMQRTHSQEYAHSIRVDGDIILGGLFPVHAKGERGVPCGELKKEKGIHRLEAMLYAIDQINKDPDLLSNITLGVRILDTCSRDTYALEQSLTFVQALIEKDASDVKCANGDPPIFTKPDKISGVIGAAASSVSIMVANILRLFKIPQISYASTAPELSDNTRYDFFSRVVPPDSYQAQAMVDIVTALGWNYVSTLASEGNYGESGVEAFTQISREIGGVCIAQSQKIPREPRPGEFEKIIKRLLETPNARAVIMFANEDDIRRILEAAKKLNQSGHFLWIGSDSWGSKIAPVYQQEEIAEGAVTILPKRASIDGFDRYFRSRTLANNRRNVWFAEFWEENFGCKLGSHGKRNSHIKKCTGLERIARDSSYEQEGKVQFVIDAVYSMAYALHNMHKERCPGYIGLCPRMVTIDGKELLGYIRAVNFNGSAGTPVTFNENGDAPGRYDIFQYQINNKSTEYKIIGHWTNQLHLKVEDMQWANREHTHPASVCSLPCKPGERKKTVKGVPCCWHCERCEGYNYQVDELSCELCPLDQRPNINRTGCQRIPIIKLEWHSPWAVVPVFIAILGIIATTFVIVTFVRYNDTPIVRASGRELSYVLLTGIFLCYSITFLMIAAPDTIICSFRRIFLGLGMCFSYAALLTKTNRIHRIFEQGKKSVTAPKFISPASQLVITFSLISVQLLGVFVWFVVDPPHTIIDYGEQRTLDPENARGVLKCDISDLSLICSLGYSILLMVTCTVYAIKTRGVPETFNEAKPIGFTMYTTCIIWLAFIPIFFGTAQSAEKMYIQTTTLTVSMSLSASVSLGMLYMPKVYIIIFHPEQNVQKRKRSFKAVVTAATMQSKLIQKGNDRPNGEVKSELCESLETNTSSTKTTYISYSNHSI", "experiment": "mGluR8 Gi/Go-coupled signaling modulation – cell-based, rat, thallium flux, HTS, primary screen (AID 488969)", "settings": "HEK293 rat mGluR8, GIRK (G protein-gated inwardly rectifying potassium channel) thallium flux, FluoZin2; at 10 µM; stronger effect = higher value; submaximal glutamate (EC20) added with thallium", "values": [
      {"smiles": "CC1CCCC(NC(=O)NC(=O)CCl)C1C", "note": "(stereo not given)", "z-score": 0.0914},
      {"smiles": "Cn1c(CSCc2ccccc2)nnc1SCC(=O)Nc1nccs1", "z-score": -0.275},
      {"smiles": "O=C(COC(=O)/C=C/c1ccccc1Cl)NCCc1ccc(Cl)cc1Cl", "z-score": -0.117},
      {"smiles": "CCOC(=O)NC(=O)CSc1nnnn1-c1ccccc1", "z-score": -0.0623},
      {"smiles": "CCOC(=O)N1CCN(c2nc(-c3cccs3)cc(C(F)(F)F)n2)CC1", "z-score": -0.08},
      {"smiles": "C=CCn1c(=NC(=O)c2ccc(S(=O)(=O)N3CCc4ccccc4C3)cc2)sc2cc(S(N)(=O)=O)ccc21", "z-score": 0.307},
      {"smiles": "CCS(=O)(=O)N1CCCC(C(=O)N2CCc3ccccc3C2)C1", "note": "(stereo not given)", "z-score": -0.0213},
      {"smiles": "Cc1cc(N2C(=O)C3C4C=CC(C4)C3C2=O)ccc1NC(=O)c1cccs1", "note": "(stereo not given)", "z-score": 0.398},
      {"smiles": "CCN(C(=O)CSc1nnc(Cc2ccccc2F)n1N)C1CCS(=O)(=O)C1", "note": "(stereo not given)", "z-score": -0.217},
      {"smiles": "COc1cc(/C=N/NC(=O)c2cccnc2)ccc1OS(=O)(=O)c1ccc(F)cc1", "z-score": -0.598},
      {"smiles": "O=C(Nc1ccncc1)c1ccc2c(c1)C(=O)N(C1CCCCC1)C2=O", "z-score": "active: 6.89"},
      {"smiles": "CCOC(=O)c1ccc2nc(C(F)(F)F)[nH]c(=O)c2c1", "z-score": 0.265},
      {"smiles": "C=C(C)CSc1nc(N)c2c(C)c(C)sc2n1", "z-score": 0.0471},
      {"smiles": "O=C1NC(=O)C2C3c4ccccc4C(c4ccccc43)C12", "note": "(stereo not given)", "z-score": -0.0586},
      {"smiles": "CC1(C)CSC(=NCc2ccccc2)N1C(=O)c1cccc([N+](=O)[O-])c1", "z-score": 0.696},
      {"smiles": "CCc1ccc(NC(=O)Cc2cn(C)c3ccccc23)cc1", "z-score": -0.196},
      {"smiles": "CCOC(=O)Nc1ccc(=O)n(Cc2c(Cl)cccc2Cl)c1", "z-score": -0.0471},
      {"smiles": "COC(=O)C1(S(=O)(=O)c2ccc(C)cc2)CCOCC1", "z-score": -0.154},
      {"smiles": "O=C1CCSc2ccc(Cl)cc2N1Cc1ccccc1", "z-score": -0.321},
      {"smiles": "COCC(=O)Nc1cccc(C(F)(F)F)c1", "z-score": -0.112},
      {"smiles": "Cc1ccc(N/N=C/c2c(O)cc(C)oc2=O)cc1", "z-score": -0.193},
      {"smiles": "CCC(C)(C)NC(=O)CN(Cc1cccs1)C(=O)CNS(=O)(=O)c1ccc(C)cc1", "z-score": 0.191},
      {"smiles": "CCOC(=O)c1[nH]c(C)c(C(=O)NCc2ccccn2)c1C", "z-score": 0.0839},
      {"smiles": "O=C(CN1CCSCC1)N/N=C/c1ccccc1F", "z-score": -0.0282},
      {"smiles": "Cc1oc(-c2ccc(Cl)cc2)nc1CN1CCC(C(=O)NCc2cccs2)CC1", "z-score": 1.65},
      {"smiles": "COc1ccc(N)cc1C#N", "z-score": 0.208},
      {"smiles": "O=C(COC(=O)C1(c2cccc(F)c2)CCCC1)NCc1ccc2c(c1)OCO2", "z-score": -0.383},
      {"smiles": "Cc1ccc(-c2nn3c(C)nnc3s2)cc1NC(=O)COc1ccc(Cl)cc1", "z-score": -0.373},
      {"smiles": "Cc1ccc(Nc2nc(N)nc(CSc3nncn3C)n2)cc1", "z-score": 1.01},
      {"smiles": "COc1ccc(OC)c(S(=O)(=O)N2CCC(C(=O)Nc3cccc(C(F)(F)F)c3)CC2)c1", "z-score": -1.13},
      {"smiles": "CC(C)CC1NC(=O)N(CC(=O)N2CCN(S(=O)(=O)c3ccccc3)CC2)C1=O", "note": "(stereo not given)", "z-score": -0.101},
      {"smiles": "CN(C)CCCN(C(=O)c1cc2ccccc2oc1=O)c1nc2c(F)cccc2s1", "z-score": 0.0921},
      {"smiles": "Cc1ccc(C2/C(=C(\\O)c3cnn(-c4ccccc4)c3C)C(=O)C(=O)N2CCN(C)C)o1", "note": "(stereo not given)", "z-score": -0.417},
      {"smiles": "C=CCNS(=O)(=O)c1ccc(OCC(=O)OCC)cc1", "z-score": -0.178},
      {"smiles": "COC(=O)CN1C(=O)C2(C(C#N)=C(N)Oc3c2c(C)nn3-c2ccccc2)c2ccccc21", "note": "(stereo not given)", "z-score": 0.0568},
      {"smiles": "COCCCNCC(=O)Nc1sc(C)c(C)c1C(=O)OC", "z-score": 0.0206},
      {"smiles": "CN(C)C(=O)CSc1nnc(Cc2ccccc2)n1Cc1ccco1", "z-score": -0.388},
      {"smiles": "O=C(NCCCN1CCOCC1)c1cc2c(s1)CSC2", "z-score": 0.2},
      {"smiles": "O=C(Nc1cccc(-c2cnc3ccccc3n2)c1)c1ccccc1", "z-score": -0.0755},
      {"smiles": "O=c1oc2ccc(Br)cc2cc1S(=O)(=O)c1ccc(F)cc1", "z-score": -0.226},
      {"smiles": "O=C1c2ccc(-c3nc4ccccc4o3)cc2C(=O)N1Cc1ccccc1", "z-score": -0.0671},
      {"smiles": "Cn1cnnc1SC/C(O)=C(\\C#N)c1nc2ccccc2[nH]1", "z-score": -0.102},
      {"smiles": "COc1ccccc1CC(=O)N1CCCc2ccccc21", "z-score": -0.0288},
      {"smiles": "Cc1nn(-c2ccccc2)c(/N=C/c2ccc(O)cc2)c1-c1ccccc1", "z-score": -0.0645},
      {"smiles": "CN(C)CCN1C(=O)c2oc3ccccc3c(=O)c2C1c1ccc(F)cc1", "note": "(stereo not given)", "z-score": 1.86},
      {"smiles": "CCC(C)c1ccccc1NC(=O)CN1CCN(C/C=C/c2ccccc2)CC1", "note": "(stereo not given)", "z-score": 0.0124},
      {"smiles": "COC(=O)c1cc(OC)c(OC)c(OC)c1NC(=O)c1ccc(S(=O)(=O)N(C)C)cc1", "z-score": 0.739},
      {"smiles": "CC(C)N=C(NC#N)SCc1ccc(Br)cc1", "z-score": -0.212},
      {"smiles": "CCCn1c(SCC(=O)c2ccc(OC)c(OC)c2)nc2c1c(=O)n(C)c(=O)n2C", "z-score": -0.237},
      {"smiles": "COc1ccc(N(CC(=O)NC2CCCC2)C(=O)CCC(=O)Nc2cc(C)on2)c(OC)c1", "z-score": 0.201},
      {"smiles": "O=C(O)CCCCc1nc2ccccc2s1", "z-score": 0.604},
      {"smiles": "Cc1ccc(C)c(NS(=O)(=O)c2cc(Br)cnc2N)c1", "z-score": -0.508},
      {"smiles": "O=C(NNC(=O)c1cccs1)c1ccc(Br)o1", "z-score": -0.207},
      {"smiles": "O=C(/C=C/c1ccc(Br)cc1)N1CCN(c2cccc(C(F)(F)F)c2)CC1", "z-score": -0.0112},
      {"smiles": "COc1ccc2cc(CN(CCO)C(=O)c3ccccc3F)c(=O)[nH]c2c1", "z-score": -0.309},
      {"smiles": "COC(=O)C1=NN[C@H](C(=O)OC)[C@H]1c1ccccc1", "z-score": -0.246},
      {"smiles": "O=C(/C=C/c1ccc(Cl)cc1Cl)c1nc2ccccc2[nH]1", "z-score": 0.0995},
      {"smiles": "CC(C)(C)c1ccc(Oc2ccc(N)cc2)cc1", "z-score": -0.54},
      {"smiles": "CC1(C)CC(=O)C2=C(C1)N=c1s/c(=C/c3ccc(F)c(F)c3)c(=O)n1C2c1ccc(F)cc1", "note": "(stereo not given)", "z-score": -0.188},
      {"smiles": "Cc1cc(NC(=O)COc2ccccc2)n(-c2ccccc2)n1", "z-score": -0.119},
      {"smiles": "Cc1ccc(-n2nnnc2-c2cnoc2-c2cccc(F)c2)cc1", "z-score": 0.0579},
      {"smiles": "N=C(CC1CC(=O)NC(=O)C1)C1=C(O)CCCC1=O", "z-score": 2.31},
      {"smiles": "CCOc1ccc2nc(SCC(=O)Nc3cc4c(cc3C(C)=O)OCO4)[nH]c2c1", "z-score": -0.347},
      {"smiles": "Nc1nc(NCc2ccccc2)nc(NCc2ccccc2)c1[N+](=O)[O-]", "z-score": -0.14},
      {"smiles": "Cn1nc(C(=O)Nc2cccc(C(F)(F)F)c2)c2ccccc2c1=O", "z-score": -0.298},
      {"smiles": "CCOc1ccc(-n2cc(C(=O)NC(C)C)c3cc(OC)c(OC)cc3c2=O)cc1", "z-score": 0.304},
      {"smiles": "O=Cc1c(-[n+]2ccccc2)nc([O-])n1-c1ccccc1", "z-score": -0.106},
      {"smiles": "CN1C(=O)c2cccc(NC(=O)C3CCCCC3)c2C1=O", "z-score": -0.37},
      {"smiles": "Cc1cc(C)nc(N2CCCC(C(=O)NC3CCCC3)C2)n1", "note": "(stereo not given)", "z-score": -0.0689},
      {"smiles": "Cc1ccc(Nc2c([N+](=O)[O-])cc(C(=O)N3CC(=O)Nc4ccccc43)cc2[N+](=O)[O-])c(C)c1", "z-score": -0.162}
    ]}
  ]
}
